Source: the supplement of paper PMC10600219
Structures can show the parent of a compound that is named as a salt. In all, about 2,800 compounds were measured (“cell viability relative to vehicle”: median about 1.1, lowest 2% from about 0.19 on). This is one part of the list.

What follows are compounds tested on NCI-H2228 parental (assay: cell viability relative to vehicle (fraction of vehicle); NCI-H2228 is an ALK-positive lung cancer line and DTP means drug-tolerant persister; higher = less growth inhibition). Settings: 100 nM; treatment time 6 days.
How it was run: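 Drug-tolerant persister NCI-H2228 cells, produced by 13 days in 1000 nM of a targeted drug, and their parental counterparts were seeded into 384-well plates and, the following day, given the 3114-agent TargetMol anti-cancer compound library at 100 nM or DMSO vehicle. After 6 days, the CellTiter-Glo 3D Cell Viability Assay was used to read ATP. Each entry reports viability compared with vehicle-treated cells.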
`CCN1CCN(c2ccc(Nc3cc(N(C)C(=O)Nc4c(Cl)c(OC)cc(OC)c4Cl)ncn3)cc2)CC1` [Infigratinib] was tested, and the cell viability was 1.01.
`Oc1cc(O)cc(/C=C/c2ccc(O)c(O)c2)c1` [Piceatannol] gave a cell viability of 1.13.
For `CN(C)Cc1ccc(-c2cnn3c(-c4cccc(NC(=O)c5cccc(C(F)(F)F)c5)c4)ccnc23)cc1`, the cell viability was 1.05.
Compound `COc1cc2ncnc(Nc3ccc(O)c(Br)c3)c2cc1OC` has a cell viability of 1.22.
Compound `O=C(O)c1ccc(O)c2ncccc12` has a cell viability of 0.985.
In the case of `Nc1[nH]c(=O)nc2c1ncn2[C@@H]1O[C@H](CO)[C@@H](O)[C@H]1O`, the cell viability is reported as 1.09.
`COc1cc(-c2cc(-c3cccc(O)c3)cnc2N)cc(OC)c1OC` showed a cell viability of 1.25.
Work on `N=C(NOCC(O)CN1CCCCC1)c1cccnc1` (stereo not drawn) yielded a cell viability of 1.09.
`O=C(c1ccc(Cl)cc1Cl)n1nnc2ccccc21` gave a cell viability of 1.07.
`CCCC(=O)Nc1cccc(NC(=O)c2ccccc2Br)c1` showed a cell viability of 1.14.
For `C#CC1(O)CC[C@H]2[C@@H]3CCC4=CC(=O)CC[C@@H]4[C@H]3CC[C@@]21CC` (stereo partly drawn) [Norgestrel], the cell viability was 1.21.
For `CO[C@H]1C[C@@H]2CC[C@@H](C)[C@@](O)(O2)C(=O)C(=O)N2CCCC[C@H]2C(=O)O[C@H]([C@H](C)C[C@@H]2CC[C@H](n3cnnn3)[C@H](OC)C2)CC(=O)[C@H](C)/C=C(\C)[C@@H](O)[C@@H](OC)C(=O)[C@H](C)C[C@H](C)/C=C/C=C/C=C/1C` [Zotarolimus], the cell viability was 0.754.
In the case of `C[C@H]1O[C@H](O[C@@H]2[C@@H](O)[C@H](OCCc3ccc(O)c(O)c3)O[C@H](CO[C@H]3OCC(O)(CO)[C@@H]3O)[C@H]2OC(=O)/C=C/c2ccc(O)c(O)c2)[C@@H](O)[C@@H](O)[C@@H]1O` (stereo partly drawn) [Forsythoside B], the cell viability is reported as 1.12.
In the case of `COc1cc(C(=O)OCCCCNC(=N)N)cc(OC)c1O` [Leonurine hydrochloride], the cell viability is reported as 0.982.
Work on `CCOCCn1c(N2CCCN(C)CC2)nc2ccccc21` [Emedastine] yielded a cell viability of 0.894.
Compound `Cc1cccn2c(=O)c(-c3nnn[nH]3)cnc12` [Pemirolast potassium] has a cell viability of 1.23.
Compound `CC[C@H](C)C(=O)O[C@H]1C[C@H](O)C=C2C=C[C@H](C)[C@H](CC[C@@H](O)C[C@@H](O)CC(=O)O)[C@H]21` [Pravastatin sodium] has a cell viability of 1.15.
`CC1=C(C(=O)O)N2C(=O)[C@@H](NC(=O)[C@H](N)c3ccccc3)[C@H]2SC1` [Cephalexin] showed a cell viability of 1.14.
For `CC(C)(C)NCC(O)COc1cccc2c1CC(O)C(O)C2` (stereo not drawn) [Nadolol], the cell viability was 1.06.
With `Cn1nc(-c2ccc(C(F)(F)F)cc2)nc2c(=O)n(C)c(=O)nc1-2` [Walrycin B] the cell viability was 0.881.
With `C[C@H](CCC(=O)NCCS(=O)(=O)O)[C@H]1CC[C@H]2[C@@H]3[C@H](O)C[C@@H]4C[C@H](O)CC[C@]4(C)[C@H]3C[C@H](O)[C@]12C` [Taurocholic acid sodium salt hydrate] the cell viability was 0.981.
Compound `Nc1ccccc1NC(=O)c1ccc(CNc2nccc(-c3cccnc3)n2)cc1` [Mocetinostat] has a cell viability of 0.456.
With `COc1cc(-c2cc(-c3ccc(N4CCNCC4)cc3)cnc2C)cc(OC)c1OC` the cell viability was 1.12.
`Cc1ccc(S(=O)(=O)/C=C/C#N)cc1` showed a cell viability of 1.09.
With `Cc1cc([N+](=O)[O-])c(NS(=O)(=O)c2cccc(C(=O)O)c2)cc1-c1cccnc1` [Alofanib] the cell viability was 1.05.
In the case of `CC[C@H](C)[C@@H]1NC(=O)[C@@H]2CCCN2C(=O)[C@@H]2CCCN2C(=O)[C@@H]2CCCN2C(=O)[C@H](CC(C)C)NC(=O)CNC(=O)CNC(=O)[C@H](Cc2ccccc2)NC1=O` [Heterophyllin B], the cell viability is reported as 1.
Work on `COc1ccc2cc3[n+](cc2c1OC)CCc1cc2c(cc1-3)OCO2` [Berberine] yielded a cell viability of 1.06.
For `Nc1ncnc2c1ncn2[C@@H]1O[C@H](CO)C[C@H]1O` [Cordycepin], the cell viability was 1.07.
In the case of `Cn1sc(=O)n(Cc2ccccc2)c1=O`, the cell viability is reported as 1.01.
`Cc1nccn1CC1CCc2c(c3ccccc3n2C)C1=O` (stereo not drawn) [Ondansetron hydrochloride] gave a cell viability of 0.923.
For `CC(=O)NC[C@H]1CN(c2ccc(N3CCOCC3)c(F)c2)C(=O)O1` [Linezolid], the cell viability was 1.22.
`COc1cc(C2Oc3ccc(C4Oc5cc(O)cc(O)c5C(=O)C4O)cc3OC2CO)ccc1O` (stereo not drawn) [Isosilybin] gave a cell viability of 1.14.
`CC(C)Cc1ccc([C@@H](C)C(=O)NS(C)(=O)=O)cc1` [Repertaxin] showed a cell viability of 1.07.
Compound `COc1ccc2c(c1)c(CC(=O)OCC(=O)O)c(C)n2C(=O)c1ccc(Cl)cc1` [Acemetacin] has a cell viability of 1.34.
In the case of `C#Cc1cccc(Nc2ncnc3cc(OCCOC)c(OCCOC)cc23)c1` [Erlotinib], the cell viability is reported as 1.07.
`COc1ccc(Cn2ccc3ccc(C(=O)NO)cc32)cc1` gave a cell viability of 1.07.
With `NS(=O)(=O)c1cc2c(cc1Cl)NC(C(Cl)Cl)NS2(=O)=O` (stereo not drawn) [Trichlormethiazide] the cell viability was 1.07.
In the case of `NC(=O)c1cnc(N[C@@H]2CCCC[C@@H]2N)nc1Nc1cccc(-n2nccn2)c1`, the cell viability is reported as 0.848.
Compound `O=C1C[C@@H](c2ccc(O)c(O)c2)Oc2cc(O)cc(O)c21` [Eriodictyol] has a cell viability of 1.04.
`CC[C@@](C)(Nc1ccnc(-c2c[nH]c3ncccc23)n1)C(=O)NCC(F)(F)F` [Decernotinib] showed a cell viability of 1.12.
Work on `Cc1c(-c2ccccc2)oc2c(C(=O)OCCN3CCCCC3)cccc2c1=O` [Flavoxate hydrochloride] yielded a cell viability of 1.19.
Work on `NCCCC(=O)O` [4-Aminobutyric acid] yielded a cell viability of 1.17.
Compound `CCCCCCOC(=O)NC(=N)c1ccc(NCc2nc3cc(C(=O)N(CCC(=O)OCC)c4ccccn4)ccc3n2C)cc1` [Dabigatran etexilate] has a cell viability of 1.13.
For `CC(=O)NC(Cc1ccccc1)C(=O)O` (stereo not drawn) [Afalanine], the cell viability was 1.04.
`CC(C)C[C@@H](C(=O)N[C@H](C(=O)OC1CCCC1)c1ccccc1)[C@H](O)C(=O)NO` [Tosedostat] gave a cell viability of 0.507.
`NS(=O)(=O)c1ccc(NC2=CC(=O)c3ccccc3C2=O)cc1` gave a cell viability of 0.842.
Work on `CCCCCCCCCCCCCCCCCCCCCCO` [n-Docosanol] yielded a cell viability of 1.09.
Work on `Cc1cc(C)c(CNC(=O)c2cc(-c3ccc(CN4CCOCC4)cc3)cc3c2cnn3C2CCCC2)c(=O)[nH]1` yielded a cell viability of 1.06.
Compound `C[C@H](N=C(NC#N)Nc1cccc2ncccc12)c1ccccc1` has a cell viability of 1.02.
`CCN(CC)CCNc1ccc(C)c2sc3ccccc3c(=O)c12` [Lucanthone] was tested, and the cell viability was 0.956.
`CN[C@@H]1[C@@H](O[C@H]2O[C@H](CO)[C@@H](N)[C@H](O)[C@H]2O)OC2C[C@@H](N)[C@@H](O[C@H]3[C@H](O)[C@@H](O)[C@H](N)C[C@@H]3N)OC2[C@@H]1O` (stereo partly drawn) [Apramycin sulfate] gave a cell viability of 1.06.
`CC12CCC(CC1=O)C2(C)C` [D-Camphor] showed a cell viability of 1.03.
`CC/C(=C(\c1ccc(O)cc1)c1ccc(OCCN(C)C)cc1)c1ccccc1` [4-Hydroxytamoxifen] showed a cell viability of 1.02.
In the case of `CC1(C)O[C@H]2CC(=O)OC[C@]23[C@H]2CC[C@@]4(C)[C@H](c5ccoc5)OC(=O)[C@H]5O[C@]54[C@]2(C)C(=O)C[C@@H]13` [Limonin], the cell viability is reported as 0.96.
`CCCCCNC(=O)N1CCC(CN(Cc2ccc(Cl)cc2)Cc2ccc([N+](=O)[O-])s2)C1` (stereo not drawn) showed a cell viability of 1.06.
In the case of `CN1CCN(c2cc(-c3ccccc3)nc(N)n2)CC1`, the cell viability is reported as 1.19.
With `CCN(CC)CCNC(=O)c1cc(Cl)c(N)cc1OC` [Metoclopramide hydrochloride] the cell viability was 1.14.
In the case of `N#C/C(=C\c1cn(-c2ccccc2)c2ccccc12)C(=O)O`, the cell viability is reported as 1.06.
Compound `CC1=NN(c2ccccc2)C(=O)C1` [Edaravone] has a cell viability of 1.11.
For `Nc1ccccc1S(N)(=O)=O` [2-Aminobenzenesulfonamide], the cell viability was 1.01.
With `COc1cc2c(Oc3ccc(NC(=O)C4(C(=O)Nc5ccc(F)cc5)CC4)cc3F)ccnc2cc1OCCCN1CCOCC1` [Foretinib] the cell viability was 1.08.
For `O=C(/C=C/c1ccc(O)cc1)CC(=O)/C=C/c1ccc(O)cc1` [Bisdemethoxycurcumin], the cell viability was 1.1.
For `C[S+]([O-])c1ccc(-c2nc(-c3ccc(F)cc3)c(-c3ccncc3)[nH]2)cc1` (stereo not drawn), the cell viability was 1.11.
In the case of `CC(=O)c1ccc2c(c1)c1cc(C(C)=O)ccc1n2CCNC(C)C` [CBL0137 hydrochloride], the cell viability is reported as 0.808.
`CC1=CC(=O)C(C(C)C)=CC1=O` [Thymoquinon] showed a cell viability of 0.987.
For `COCCNc1cc(NC(=O)N2CCCc3cc(CN4CCN(C)CC4=O)c(C=O)nc32)ncc1C#N` [Roblitinib], the cell viability was 1.13.
In the case of `O=C(O)Cc1c[nH]c2ccc(O)cc12`, the cell viability is reported as 1.11.
For `CN(C)CCC=C1c2ccccc2COc2ccccc21` [Doxepin hydrochloride], the cell viability was 1.26.
`CCCCCCCCCCCCCC(=O)[O-].CCCCCCCCCCCCCC(=O)[O-].N[C@@H]1CCCC[C@H]1N.[Pt+2]` [Miriplatin] gave a cell viability of 1.11.
For `N[C@@H](CO)C(=O)O` [serine], the cell viability was 1.06.
In the case of `CN1CCC[C@@H]1Cc1c[nH]c2ccc(CCS(=O)(=O)c3ccccc3)cc12` [Eletriptan HBr], the cell viability is reported as 0.946.
Work on `CC(C)[N+](C)(CCOC(=O)C1c2ccccc2Oc2ccccc21)C(C)C` [Propantheline bromide] yielded a cell viability of 1.01.
`C#CCN[C@@H]1CCc2ccccc21` [Rasagiline] gave a cell viability of 0.956.
In the case of `C/C(=C\c1csc(C)n1)[C@@H]1C[C@@H]2O[C@]2(C)CCC[C@H](C)[C@H](O)[C@@H](C)C(=O)C(C)(C)[C@@H](O)CC(=O)N1` [Ixabepilone], the cell viability is reported as 0.119.
For `COc1cc(OC2CCN(C)CC2)ccc1Nc1ncc2c(n1)n(C1CCCC1)c(=O)n2C`, the cell viability was 1.24.
`COc1ccc(-c2cc(=S)ss2)cc1` [Anethole trithione] showed a cell viability of 1.
Work on `CN/C(=C\[N+](=O)[O-])NCCSCc1ccc(CN(C)C)o1` [Ranitidin] yielded a cell viability of 1.07.
`C/C=C(\C)C(=O)OC1c2c(ccc3ccc(=O)oc23)OC(C)(C)C1OC(=O)/C(C)=C/C` (stereo not drawn) [Praeruptorin B] showed a cell viability of 1.08.
